# Whole data set: some 33,000 sequences, median “E-score (-0.5 to 0.5)” near -0.021, cut for the highest 2% near 0.32. The list shows a part of the results.
# Target: T1, Zap1 (UniProt P47043)
# T1 sequence: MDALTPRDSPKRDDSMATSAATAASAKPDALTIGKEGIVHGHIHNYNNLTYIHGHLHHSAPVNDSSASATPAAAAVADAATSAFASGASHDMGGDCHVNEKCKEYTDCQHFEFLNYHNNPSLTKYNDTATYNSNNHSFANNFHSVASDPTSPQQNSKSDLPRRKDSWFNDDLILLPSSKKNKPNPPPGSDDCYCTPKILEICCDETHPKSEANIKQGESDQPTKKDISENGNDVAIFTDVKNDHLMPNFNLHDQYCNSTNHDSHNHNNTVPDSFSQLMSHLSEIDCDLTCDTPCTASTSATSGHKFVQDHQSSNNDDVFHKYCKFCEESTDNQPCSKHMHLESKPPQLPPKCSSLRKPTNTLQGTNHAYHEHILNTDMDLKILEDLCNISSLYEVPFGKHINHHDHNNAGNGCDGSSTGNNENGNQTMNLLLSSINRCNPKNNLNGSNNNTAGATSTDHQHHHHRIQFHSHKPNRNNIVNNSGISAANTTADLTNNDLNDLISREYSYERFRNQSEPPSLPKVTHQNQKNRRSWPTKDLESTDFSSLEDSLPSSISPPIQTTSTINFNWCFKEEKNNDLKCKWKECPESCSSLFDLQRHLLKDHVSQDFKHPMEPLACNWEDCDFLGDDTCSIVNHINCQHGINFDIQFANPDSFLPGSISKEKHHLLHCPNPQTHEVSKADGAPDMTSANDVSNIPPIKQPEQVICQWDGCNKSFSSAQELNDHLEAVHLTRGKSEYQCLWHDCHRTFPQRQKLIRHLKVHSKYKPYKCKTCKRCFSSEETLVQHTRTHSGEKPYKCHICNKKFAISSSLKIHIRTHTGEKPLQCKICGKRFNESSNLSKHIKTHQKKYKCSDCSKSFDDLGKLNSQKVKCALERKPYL
# Test: PBM E-score (8-mer binding enrichment) (E-score (-0.5 to 0.5)); higher = stronger / more preferred TF binding; most listed sequences are background and not binding sites
# Conditions: protein concentration: 200 nM; construct: GST-full length
# In short: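 E-scores (a modified Wilcoxon-Mann-Whitney statistic) were assigned by the Universal PBM Analysis Suite to every ungapped eight-base word pooled with its reverse complement. The input came from universal all-10-mer Agilent arrays made double-stranded by primer extension and probed with GST-tagged yeast transcription factors at about 100-200 nM. Fluorescent anti-GST detected bound protein, and masliner normalised the scans.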
row,Sequence,PBM E-score
1,GGACGCGA,-0.163
2,AGCTGTAT,-0.19
3,ACCTTACC,0.251
4,CCGCTAGC,-0.222
5,TAGCAACA,-0.0723
6,ACTGTAGG,0.212
7,ACGAAGGA,-0.166
8,AAAGGTCG,0.323
9,TCATTAAA,0.3
10,CTTACGTC,-0.182
11,CTTAGTAA,0.0433
12,GTTATGGA,0.294
13,TCTTAAAA,0.0989
14,TCCATGCA,-0.0815
15,ACTCTACA,-0.0581
16,AGCACGCT,-0.147
17,CACTCCGA,-0.163
18,TAAGGCGA,-0.0498
19,ACCTTACT,0.2
20,GATGGATA,-0.131
21,AATGCGAA,-0.0534
22,GTACGTAA,0.0366
23,AACAGAGT,0.0155
24,ATAACTCG,0.131
25,GTTATAAC,0.401

row,Sequence,PBM E-score
1,CCCAAGAA,0.0734
2,GCCATAAA,0.099
3,AATCCAAT,-0.00622
4,GGTAAACC,-0.00185
5,GTCACGCA,-0.0264
6,ACTCACTC,-0.113
7,CAGCAAGC,-0.389
8,CACCACTC,0.139
9,ACCACCGG,0.143
10,AGCGGCAA,-0.225
11,GAGCCCCA,-0.0458
12,AATTGAAC,-0.0125
13,ACCCCTGG,0.289
14,CCATACAG,0.0668
15,ACTATAGA,0.0389
16,AATCCCTC,-0.162
17,AGCGCGCA,-0.032
18,CGAGCTTC,-0.124
19,ATGTCTCG,-0.211
20,AGAACCTA,0.0497
21,CCATACTC,-0.00872
22,CATTTGCA,0.104
23,AAGTTGAA,0.00377
24,AGTTCAAG,0.0918
25,GCCTATGA,-0.00418

row,Sequence,PBM E-score
1,ACCATCTA,-0.0543
2,GCTGACTA,-0.246
3,GACGCAAA,-0.0858
4,TAGCTTAA,0.0855
5,ACTATGCA,0.00554
6,TAATATAA,0.283
7,GAAGCGCC,-0.135
8,CTGATCGC,-0.199
9,ATGCGGTC,0.179
10,AATGAGTG,0.0236
11,AAGAATCC,-0.0422
12,ATCACTAA,0.0673
13,CCCGCCCC,0.176
14,CCATGCGA,-0.00441
15,AAGGATGC,-0.24
16,CCTGCTAG,-0.173
17,ACATCTCG,-0.113
18,AGGCATTC,-0.255
19,GAGTACCA,0.247
20,AAACACCT,0.196
21,TATCGTGA,0.0588
22,AGTTCCAT,0.103
23,AGGTGTAC,-0.0668
24,AAGATGTG,0.136
25,GGACTACC,0.172

row,Sequence,PBM E-score
1,ACGCCCAC,0.0802
2,GGTTGTGA,0.374
3,GGCGTCTA,-0.147
4,TTAGACAA,-0.0263
5,GCGCTGAA,-0.241
6,ATGACCTG,0.303
7,AAGAAAAA,0.19
8,CGTTGCGA,-0.126
9,ACGCACCG,-0.0299
10,ATTACTGA,0.0342
11,TCCAAAGA,0.13
12,CTACTGAG,-0.0539
13,CCTCAATA,0.0804
14,CCTAAGCC,-0.264
15,CCCGAACC,0.0468
16,CAAACCAG,0.0515
17,GGTCCTGA,0.102
18,CCGGTGCG,0.0015
19,CAGTGGTC,0.0921
20,GGTAACAC,0.237
21,CCTGGTAG,0.156
22,CCTTATAC,0.0827
23,CAGTCACG,-0.137
24,CACACGCA,-0.0335
25,CACACCGG,-0.0808

row,Sequence,PBM E-score
1,AAATATTT,0.181
2,CTGCTGGC,-0.322
3,ACCGTCCG,0.00861
4,AATTTTCA,0.0836
5,GACACTCA,-0.146
6,CCACTCTA,0.146
7,CTGCCAGA,-0.0969
8,ACTCCACT,-0.168
9,ACAGCTTG,-0.113
10,CTTTCACC,-0.0507
11,TAATGCGA,0.00701
12,AGTACACC,0.0762
13,ATATACCG,0.134
14,CGCAGCTA,-0.162
15,GCTAATCC,-0.0663
16,CACTGGGC,-0.327
17,GGTGCATA,-0.0507
18,CTGTGGAA,-0.0936
19,CAAGATCG,-0.00013
20,CTGTAAGC,-0.185
21,TTGAGAAA,0.112
22,GCGGACCA,0.227
23,ATGTAATA,0.133
24,CAAGAGCC,0.0252
25,CTTGAACA,0.0243

row,Sequence,PBM E-score
1,AACGTCGC,-0.0554
2,AAGCCGGA,0.155
3,ACCTCCCG,-0.0297
4,TATCTGCA,0.0163
5,CGATGGCG,-0.284
6,CAGGGGAC,-0.0583
7,AATCCGGT,0.145
8,GGCTCCTA,-0.177
9,TACAAGGA,-0.0532
10,AAATTCTT,-0.219
11,CTTCACCC,0.16
12,GAAACCAC,0.116
13,ACGTGCAA,-0.128
14,GTTACGAA,0.315
15,CAGCCCGC,-0.368
16,GACTAGAC,-0.101
17,CAAACACG,0.00956
18,TGCGCTAA,0.0088
19,GCCGTTCC,-0.216
20,TATCTTGA,-0.0601
21,CAGCAAAG,0.0786
22,ATTGGCAG,-0.219
23,ACGCTGCC,-0.24
24,AAACAATA,0.16
25,AGTCTCTC,-0.193

row,Sequence,PBM E-score
1,GTCTCGAA,0.00193
2,GACATAGA,-0.201
3,CGTATGCC,-0.166
4,CTCAAAAG,0.107
5,TACCGCCA,0.0985
6,GCGCCAGA,-0.187
7,TCCATTAA,0.13
8,AAAGTGCG,-0.112
9,TTAGCAAA,-0.00157
10,GTATCCAC,0.00481
11,ATTCATAG,-0.0199
12,GCTTGTAC,-0.0498
13,CCGGAGCA,-0.103
14,ACCGAACA,0.164
15,CAATTGGC,-0.0337
16,TGTACAAA,0.0923
17,AGCTCTGC,-0.244
18,AATGTAGA,-0.0152
19,AGCTTGCG,0.0161
20,CTGTATAA,0.146
21,AGAGTTAG,0.0841
22,AAATTAAT,0.137

# Source: the supplement of paper PMC3334620
